B1: PetML 308 - Human p75NTR ECD full stalk IgG1 (Fc fusion)
chain: KEACPTGLYTHSGECCKACNLGEGVAQPCGANQTVCEPCLDSVTFSDVVSATEPCKPCTECVGLQSMSAPCVEADDAVCRCAYGYYQDETTGRCEACRVCEAGSGLVFSCQDKQNTVCEECPDGTYSDEANHVDPCLPCTVCEDTERQLRECTRWADAECEEIPGRWITRSTPPEGSDSTAPSTQEPEAPPEQDLIASTVAGVVTTVMGGGG[sequence of human IgG1 Fc omitted]
B2: PetML 309 - Human p75NTR ECD partial stalk IgG1 (Fc fusion)
chain: KEACPTGLYTHSGECCKACNLGEGVAQPCGANQTVCEPCLDSVTFSDVVSATEPCKPCTECVGLQSMSAPCVEADDAVCRCAYGYYQDETTGRCEACRVCEAGSGLVFSCQDKQNTVCEECPDGTYSDEANHVDPCLPCTVCEDTERQLRECTRWADAECEEIPGRWITRSTPPEGGGG[sequence of human IgG1 Fc omitted]
B3: PetML 319 - Human p75NTR ECD no stalk (Fc fusion)
chain: KEACPTGLYTHSGECCKACNLGEGVAQPCGANQTVCEPCLDSVTFSDVVSATEPCKPCTECVGLQSMSAPCVEADDAVCRCAYGYYQDETTGRCEACRVCEAGSGLVFSCQDKQNTVCEECPDGTYSDEANHVDPCLPCTVCEDTERQLRECTRWADAECEEIPGGGG[sequence of human IgG1 Fc omitted]

What was measured:
[1] = target: NGF (species not stated at the place) (Homo sapiens (Human)) (UniProt P01138); assay: cell-based or functional assay
rat Nerve Growth Factor = target: T1, rat Nerve Growth Factor (rat, UniProt P25427 122-241, limits assumed); assay: SPR (Biacore 8K), fusion captured on Protein A chip
Sequence of rat Nerve Growth Factor (P25427 122-241 limits assumed): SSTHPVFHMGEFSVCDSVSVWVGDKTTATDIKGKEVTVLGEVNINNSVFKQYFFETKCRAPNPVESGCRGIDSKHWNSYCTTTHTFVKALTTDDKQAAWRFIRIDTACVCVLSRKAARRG
T1 construct: Bought recombinant protein; also called rNGF; rat NGF
Procedure: Binding affinity of fusion proteins to human and rat NGF was assessed using Biacore 8K (Cytiva). Briefly, Protein A Sensor Chip (Cytiva) was docked into Biacore 8K, equilibrated for 30′ at RT and then Running Buffer (10 mM HEPES pH7.4 150 mM NaCl 3 mM EDTA and 0.005% Tween20) was applied to the SPR chip surface.
These were immobilised using 90 see association at 10 uL/min as capturing step, followed by injection of running buffer to remove any unbound product.
(§1) Kinetics were assessed using multi-cycle kinetics with capture step method (30 see association-300 see dissociation) followed by regeneration step (0.1M Glycine pH2.2 contact time 60 see FR 30 uL/min). Kinetics quantification have been performed using Biacore Insight following standard analyses methods.

[2] = target: T2, human Nerve Growth Factor (human, UniProt P01138 fragment); assay: SPR (Biacore 8K), fusion captured on Protein A chip, hNGF as analyte, multi-cycle kinetics
T2 construct: Bought recombinant protein; also called hNGF; human NGF
T2 sequence (P01138 122-241 limits assumed): as the sequence (P25427 122-241 limits assumed) above, with T3S, V6I, M9R, T37M, A60D, E65D, T92M, D94G, A117V, G120A counted along it
Procedure: Briefly, Protein A Sensor Chip (Cytiva) was docked into Biacore 8K, equilibrated for 30′ at RT and then Running Buffer (10 mM HEPES pH7.4 150 mM NaCl 3 mM EDTA and 0.005% Tween20) was applied to the SPR chip surface.
PetML319, PetML308 or PetML309 was diluted into running buffer at 6 nM concentration. These have been immobilised using 90 see association at 10 uL/min as capturing step, followed by injection of running buffer to remove any unbound product.
as §1, with “methods (Table 5).” for “methods.”

[3] = target: NGF (species not stated at the place) (Homo sapiens (Human)) (UniProt P01138); assay: SPR (Biacore 8K), fusion captured on Protein A chip, NGF as analyte; the table does not say human or rat NGF

Binder | Bottom (%), PathHunter TrkA activation assay [1] [%] | IC50 (nM), PathHunter TrkA activation assay [1] [nM] | Top (%), PathHunter TrkA activation assay [1] [%] | binding result (rat Nerve Growth Factor) | Kd [2] [nM] | koff [2] [s⁻¹] | kon [2] [M⁻¹ s⁻¹] | Kd [3] [nM]
B1 | 44.5 | 282 | 105 | binds | 5680 | 0.00194 | 342 | 8.78
B2 | 28.7 | 18.7 | 97.9 | binds | 24.8 | 0.0275 | 1.11e+06 | 2.31
B3 |  | 8.04 |  | binds |  | 0.000659 | 8.86e+06 | 0.358

Reference: patent US20240270818A1 (PETMEDIX, published 2024)
